Read counts are not given, so values of variants with three or more changes are uncertain.
B1: LINE1-full (parent)
chain: UACGUAGGUGGUUUUCCCCUGAUAGUGCUAAGGGGGCCUGGAAGUUUGGACUGGGCAGAGCUCAACACAGCGUGGCAAAGUGGCUGUGGCUAGACUGCCUCUCUGGAUUCCUCGUCACUCAGCAGGGCAUCUCUGAGAGAAAUGCC

Variants of: B1
Assay: self-cleavage, relative activity (ratio to wild type); higher = more cleavage; in vitro, sequencing; the parent is a self-cleaving ribozyme

Variant	self-cleavage
G54A U134C A138U	0.58
A65U G105U U115C G127A	0.22
U13C G72A U96C	0.02
G83A U96C A142G	0.1
G34U G105A A121U A138G	0
U26C G36A A141G	1.27
U20C U85C A142G	0.13
G35A A124U A141U	1.32
U26C A69G A79G	0.38
U12G U26C C63G	0.62
U46C G49U U134A	0.72
U5C U45C A64G	0.48
C37U U47C A138G	1.82
A107G U115C U143C	0
U12C C101U U115C U130C	2.37
A24U G74A A92U	0.82
A94G U112A A140G	0.41
U12A A77U A92G U102C	0.36
A42G A43G U47C A107G	1.84
U13C U73G U96A U100C A141G	0.06
U13C A42G U130C	1.31
U29C U47G U73A A78U	1.95
U12C U23C A24G	1.06
A67G U85A A124G A142G	0

Variant	self-cleavage
U12C A43U A79G A117G	1.53
U20C A43U U85A A138U	0.11
U12C U39G A42G A57G A117U A138G	0
G93U U100C A129U	0.01
A2U U13C U39G U109C	1.06
U20C G34A C103U	1.07
A69G A77G A79G A117U A141G	0.84
G32A U39C U85C C113U U134C	0.13
U20A G27A U104C A124G	1.11
U39C U45C U132C A142G	1.02
C3U U52A A65G	0.12
U9A U12C A77G G82A A136U	1.56
G58A U100C A142G	0.06
A59G A121G G139U	0.06
G27A U46C A78G	1.53
C84U U108C A140U	0.09
U29C A42U C51U U102C A142G	1.45
U26C A77G U134G	2.19
U15C U45A A65G U119A A129G	0
U13C U104A A138G	1.2
A77G A136G A138U	2.67
U20C C38U U39C C63A A124U U143C	0.06
U39A A136G A141U	1.79
U12C A50G A78G U91C A141G	0

Variant	self-cleavage
A79G U119C U132C	0.97
U39C U73A U115C A142U U143C	0.33
U62G U134A A138G	0.14
A6G A77G C90A A124G U132C	0.12
C71A U87A U134A	0.02
U14C U52C U108C	0
U13C A43G A57G U119C U143A	0.92
A30U U47C A138G	1.3
A42U A43G U87A U115A G122U A138G	0.08
A43G U62C C118A	0.21
U87C U108C A124G	0
A77U U119A A129U	0.68
U13A A42G A141G	0.75
U13C A22C A69U A136U	0.31
U12C U26C A141G A142G	1.15
A78G U112C A138G	1.34
U5C A22U U47A	0.91
U62C C71A A92G A138U A140G	0
U1C A43U A69U A141G	0.05
U1C U26C U87A U132A	0
A43G U62C U104C	0.15
U62C A77G C84A U85G A94G U132C A141G	0
U13A U96C G106A U119C	0.15
U52C U96C U143C	0.32

Variant	self-cleavage
U46G A59G U100C A124G A140G	0
U87G U104A A124G U130G	0
C28A A42G U47C U143C	1.13
U12C U26A A77G	1.36
U20C U47A G126A	1.42
U9C U13C U15A A22G A107G A142G	0
U104C A121U A141G	1.49
A2G U15A A57U G97A	0.22
A64G U73C U85A A141G	0
G25U A64U A121G	0.32
G33C A64G A124G	0.14
U12C U87C U134A	0
U23C U81C G105U	1.81
A64G A140G A142G	0.09
C18U U102A A129G	2.12
A30G G35A U115A A138U	0.94
A22G U134C U143G	1.31
U112C A117G A129C	1.67
A24G A65G U134C	0
U52A U130C A142C	0.96
A6G A22G A64U A67G U87A U102C	0
A24G U39C U104A U134A	1.34
U1C U46A U130A	1.59
U46C U102A A138G	1.97

Variant	self-cleavage
U12C U23C G35A A43G A138G	2.06
U13C G40A U47C A57U C133A U134C	0.19
U87C U104C U119C	0
U12G A50G A59G A117U	0.49
U52A A64U G114A	0.39
A57C A94C A121U	0
A2G A31G A69G	0.64
A57U U81A U102C	0.15
U23C U47C C116U	0.28
A2G A6G U13C	0.35
U12G U39C G125A	1.34
U29C U46A A138U	0.53
C71U U91A A117G	0.48
U14C C123U A138U	2.21
U13C G27A A94U	0.35
C101U U119C A140U	1.36
A2G U5G A43C A78G U130A A136G U143C	0
U5A U81G U96C C133A	0.07
G4A U9C A64U A69G	0.29
U15C G55A U62A	0.02
U14C A43G U73C	0.38
G72A A78G U96A	0.03
A30G U52C G127C	1.75
A94G U102C A140G	0

Variant	self-cleavage
U13C U46C A78G A124U	0.57
U9C A30G A94G	0.99
A2G A57G A64U G89A U91A U108C	0
U12C G70A C113U A121G	0.07
A6G U104C U143A	1.33
A24U A67C U104A	0.1
U13A A121G U143C	1.8
U12G U62C A124G	0.13
A43G A57U U85C	0
A50G G75A U104A A141G	1.22
U29C U102C U104A A142G	0.44
U5C A42G C71U C90G U100C	0
A22U C68U C131U	0.09
U15C U132C A140G	2.1
U1C U52A A59G G75C A77U C123U	0.05
A43G A57U A67U U85A	0
G10A A24G A50U A65G A140G	0.4
U81A U109C A141G	2.94
C28U G33A A67G A69G A121G A138G	0
U12C U15C U39C U45C A69G U87A C98U U100C U134C	0
U12C U13C A77U U134A	1.2
U20C U26A A43G A92G	0
U12G U23C U119A	1.34
U15A C28G A79G	0.71

Variant	self-cleavage
C19U G75A U130A U132A	1.38
G7A U26A C56U A65G A138G	0
U12G C71A A94G	0.12
A42G A57U U104C U109A	0.12
A2C U13C A69G A140G	0.93
G83A U112C A124G A136G	0.24
G25A U104A A107G U115C C123U	0.97
U9A A124C A140G	0.32
A50G C120U U132C	1.04
A6G U20C A42C A50G A77G G88A	0
U26C G74C U85C U143C	0.56
G34A A65U A78G U119A A121G U132A A136U U143A	0
U26C C38A U134A	0.78
U12G A22G U29C U62C U115A	0
G10A U45C U73A	1.7
A22G A117G A138G	1.31
U5A U9C U109A C120A	0.56
U96C U100C U109C A141G	0
A30G U47A U52C	0.29
U13C A79U U112C A121G C146U	1.65
U12G U45C A77U	1.21
A42G U81C U143C	1.15
U9C G21A A43G A78U C90U	0.13

From the RNAGym collection of RNA variant scans (doi:10.7554/elife.90254)
